The source of these data is the supplement of paper PMC10723795.

Molecules are shown by their SMILES. Counter-ions that a name gives are not always drawn. This is one part of the list.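 The calls were made as follows: active = more than 2 SD below the DMSO mean: under 0.85 at 10 µM or 0.885 at 1 µM; inactive = the rest.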 Most values come without repeats; read them as rough.

This assay concerns RPE1. Kind of assay: nucleolar normality score relative to DMSO (fraction of DMSO control); RPE1 is a non-cancer human cell line; higher = more normal nucleoli (less nucleolar stress). To be noted: 24 h.
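Also: fixed cells immunolabelled for nucleolin and UBF, 40 image fields per well in 384-well plates, per-cell score = nucleolin nucleolar/nucleoplasm intensity ratio divided by the matching UBF ratio.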

For `O=C1CCC(N2C(=O)c3ccccc3C2=O)C(=O)N1` (stereo not drawn) [Thalidomide], the nucleolar normality score reads like this: (1 µM) inactive: 0.961; (10 µM) inactive: 1.01.
The like results for `CCCCc1nc(Cl)c(CO)n1Cc1ccc(-c2ccccc2-c2nnn[nH]2)cc1` [Losartan] were, in that order, inactive: 1 and inactive: 1.07.
For `C=CCn1c(=O)c2cnc(Nc3ccc(N4CCN(C)CC4)cc3)nc2n1-c1cccc(C(C)(C)O)n1` [Adavosertib (MK-1775)], the nucleolar normality score was inactive: 1.01 (1 µM) and inactive: 0.939 (10 µM).
The matching figures for `CC(NC(=O)Cc1cc(F)cc(F)c1)C(=O)NC1C(=O)N(C)c2ccccc2-c2ccccc21` (stereo not drawn): inactive: 1.06 and inactive: 1.1.
For the molecule `CN(C)CCNC(=O)c1cccn2c(=O)c3cc4ccccc4cc3nc12`, the nucleolar normality score by setting is: (1 µM) active: 0.11; (10 µM) active: 0.129.
For the molecule `COC(=O)[C@H](CCSC)NC(=O)c1ccc(NC[C@@H](N)CS)cc1-c1ccccc1`, the nucleolar normality score is inactive: 0.964 (1 µM) and inactive: 1.03 (10 µM).
`Cc1cc(C)c(CNC(=O)c2cc(-c3ccc(N4CCN(C)CC4)nc3)cc3c2c(C)cn3C(C)C)c(=O)[nH]1`: the nucleolar normality score is inactive: 1 (1 µM) and inactive: 1.01 (10 µM).
The like results for `O=C1c2c(O)cc(O)cc2O[C@H](c2cc(O)c(O)c(O)c2)[C@H]1O` [Dihydromyricetin] were, in that order, inactive: 1.08 and inactive: 1.12.
`CCc1cnn2c(NCc3ccc[n+]([O-])c3)cc(N3CCCC[C@H]3CCO)nc12`: the nucleolar normality score (1 µM) is active: 0.223 and the nucleolar normality score (10 µM) is active: 0.225.
The matching figures for `O=C1NC(=O)[C@@H](c2cn3c4c(cccc24)CCC3)[C@@H]1c1c[nH]c2ccccc12` [Tivantinib (ARQ 197)]: inactive: 1.02 and inactive: 0.877.
The like results for `CC(C(=O)Nc1cccc(/N=C/c2c(O)ccc3ccccc23)c1)c1ccccc1` (stereo not drawn) [Salermide] were, in that order, inactive: 0.992 and inactive: 1.05.
As to `COc1nc(N)nc2c1ncn2[C@@H]1O[C@H](CO)[C@@H](O)[C@@H]1O` [Nelarabine], the nucleolar normality score is, setting by setting: (1 µM) inactive: 0.998; (10 µM) inactive: 1.05.
On to `CN(C)CCCn1cc(C2=C(c3c[nH]c4ccccc34)C(=O)NC2=O)c2ccccc21`, for which the nucleolar normality score was inactive: 0.977 (1 µM) and inactive: 0.976 (10 µM).
Turning to `O=C(Nc1cccc(Nc2ncc(Br)c(NCCc3cnc[nH]3)n2)c1)N1CCCC1`, the nucleolar normality score (1 µM) is inactive: 0.951 and the nucleolar normality score (10 µM) was inactive: 1.08.
The like results for `Cn1cnc([N+](=O)[O-])c1Sc1ncnc2[nH]cnc12` [Azathioprine] were, in that order, active: 0.822 and inactive: 0.964.
Consider `CC(C)C(=O)Nc1ccc([N+](=O)[O-])c(C(F)(F)F)c1` [Flutamide], for which the nucleolar normality score was inactive: 0.981 (1 µM) and inactive: 1.03 (10 µM).
`CC(C)(O)C1CCC(C)(C2C(O)CC3(C)C4CC(OC5OC(CO)C(O)C(O)C5O)C5C(C)(C)C(OC6OCC(O)C(O)C6O)CCC56CC46CCC23C)O1` (stereo not drawn) [Astragaloside A]: the nucleolar normality score reads like this: (1 µM) inactive: 1; (10 µM) inactive: 0.917.
In the case of `S=C(NCc1ccc2c(c1)OCO2)N1CCN(c2ncnc3c2oc2ccccc23)CC1` [Amuvatinib (MP-470)], the nucleolar normality score runs as follows: (1 µM) inactive: 1.05; (10 µM) inactive: 1.07.
Take `CC1(C)CCC2=C(O1)c1ccccc1C(=O)C2=O` [Beta-Lapachone]: the nucleolar normality score runs as follows: (1 µM) inactive: 0.975; (10 µM) inactive: 1.03.
As for `Cc1cc(C)nc(NC(=S)N2CCN(Cc3ccc(C(F)(F)F)cc3)CC2)c1`, the nucleolar normality score is inactive: 1.09 (1 µM) and inactive: 1.08 (10 µM).
Turning to `Cc1cc(O)c(-c2ccc([C@@H](C)CN(C)C)cc2)c2c1[nH]c(=O)c1sccc12`, the nucleolar normality score (1 µM) was active: 0.203 and the nucleolar normality score (10 µM) is active: 0.182.
The like results for `CCOc1cc(C(C)(C)C)ccc1C1=N[C@@](C)(c2ccc(Cl)cc2)[C@@](C)(c2ccc(Cl)cc2)N1C(=O)N1CCN(CCCS(C)(=O)=O)CC1` were, in that order, inactive: 1.06 and inactive: 1.02.
The matching figures for `CN1CCN(c2ccc(OC(F)(F)F)c(Nc3ncc4c(n3)-c3c(c(C(N)=O)nn3CCO)CC4)c2)CC1`: active: 0.88 and active: 0.826.
As for `Cc1cc(O)c2c(c1)C(=O)c1cc(O)cc(O)c1C2=O` [Emodin], the nucleolar normality score is, setting by setting: (1 µM) inactive: 1.09; (10 µM) inactive: 1.12.
Regarding `Cn1cc(-c2ccc3nnc(Sc4ccc5ncccc5c4)n3n2)cn1`, the nucleolar normality score is, setting by setting: (1 µM) inactive: 1.11; (10 µM) inactive: 1.1.
Consider `Clc1ccc(Nc2nnc(Cc3ccncc3)c3ccccc23)cc1` [Vatalanib (PTK787) 2HCl], for which the nucleolar normality score was inactive: 1.06 (1 µM) and inactive: 1.06 (10 µM).
For the molecule `COC(=O)c1ccc2c(C(=Nc3ccc(N(C)C(=O)CN4CCN(C)CC4)cc3)c3ccccc3)c(O)[nH]c2c1` [Nintedanib Ethanesulfonate Salt], the nucleolar normality score reads like this: (1 µM) inactive: 0.934; (10 µM) inactive: 1.04.
The matching figures for `COC(=O)c1ccc2c(C(=Nc3ccc(N(C)C(=O)CN4CCN(C)CC4)cc3)c3ccccc3)c(O)[nH]c2c1` [Nintedanib (BIBF 1120)]: inactive: 1.05 and active: 0.741.
Regarding `CC(C)=CCOc1c2ccoc2cc2oc(=O)ccc12` [Isoimperatorin], the nucleolar normality score was inactive: 1.11 (1 µM) and inactive: 0.93 (10 µM).
Consider `CN1CCN(C2CCN(C(=O)Nc3cc(Oc4ccc(NC(=O)C5(C(=O)Nc6ccc(F)cc6)CC5)c(F)c4)ccn3)CC2)CC1` [Golvatinib (E7050)], for which the nucleolar normality score was inactive: 1.01 (1 µM) and inactive: 1.01 (10 µM).
For the molecule `O=c1[nH]cnc2[nH]ncc12` [Allopurinol Sodium], the nucleolar normality score was inactive: 1.01 (1 µM) and inactive: 1.07 (10 µM).
Take `Cc1cc2c(F)c(Oc3ncnn4cc(OC[C@@H](C)O)c(C)c34)ccc2[nH]1`: the nucleolar normality score runs as follows: (1 µM) inactive: 0.998; (10 µM) inactive: 1.04.
As to `COc1cc(/C=C/C(=O)CC(=O)/C=C/c2ccc(O)c(OC)c2)ccc1O` [Curcumin], the nucleolar normality score (1 µM) was inactive: 1.03 and the nucleolar normality score (10 µM) is inactive: 1.08.
Turning to `Cn1cc(-c2ccc(S(=O)(=O)n3ccc(/C=C/C(=O)Nc4ccccc4N)c3)cc2)cn1`, the nucleolar normality score reads like this: (1 µM) inactive: 0.979; (10 µM) inactive: 1.03.
With `CC/C(=C(\c1ccccc1)c1ccc(OCCN(C)C)cc1)c1ccccc1` [Tamoxifen Citrate], the nucleolar normality score is inactive: 1.03 (1 µM) and inactive: 1.11 (10 µM).
Consider `O=c1[nH]nc(Sc2ncc([N+](=O)[O-])s2)n1-c1ccc2c(c1)OCCO2`, for which the nucleolar normality score is inactive: 0.952 (1 µM) and inactive: 1.1 (10 µM).
Consider `C=C(c1ccc(C(=O)O)cc1)c1cc2c(cc1C)C(C)(C)CCC2(C)C` [Bexarotene], for which the nucleolar normality score reads like this: (1 µM) inactive: 1.04; (10 µM) inactive: 1.04.
As to `COc1cc2ncnc(Nc3ccc(F)c(Cl)c3)c2cc1OCCCN1CCOCC1` [Gefitinib (ZD1839)], the nucleolar normality score (1 µM) was inactive: 0.965 and the nucleolar normality score (10 µM) was inactive: 1.02.
Take `CN1CCN(c2nc(C3=C(c4c[nH]c5ccccc45)C(=O)NC3=O)c3ccccc3n2)CC1` [Sotrastaurin]: the nucleolar normality score is inactive: 1.02 (1 µM) and inactive: 0.895 (10 µM).
With `COC(=O)[C@]12CCC(C)(C)C[C@H]1[C@H]1C(=O)C=C3[C@@]4(C)C=C(C#N)C(=O)C(C)(C)[C@@H]4CC[C@@]3(C)[C@]1(C)CC2` [Bardoxolone Methyl], the nucleolar normality score was inactive: 0.9 (1 µM) and active: 0.268 (10 µM).
Regarding `Nc1nc2[nH]cc(CCc3ccc(C(=O)N[C@@H](CCC(=O)O)C(=O)O)cc3)c2c(=O)[nH]1` [Pemetrexed Disodium Hydrate], the nucleolar normality score by setting is: (1 µM) inactive: 1.02; (10 µM) inactive: 1.07.
Regarding `Cc1ccc(S(=O)(=O)Nc2cc(-c3ccc(C#N)s3)ccc2C)cc1`, the nucleolar normality score (1 µM) was inactive: 0.932 and the nucleolar normality score (10 µM) is active: 0.808.
In the case of `CCN1CCN(Cc2ccc(Nc3ncc(F)c(-c4cc(F)c5nc(C)n(C(C)C)c5c4)n3)nc2)CC1`, the nucleolar normality score is inactive: 0.888 (1 µM) and inactive: 1 (10 µM).
The like results for `CCN1CCN(Cc2ccc(Nc3ncc(F)c(-c4cc(F)c5nc(C)n(C(C)C)c5c4)n3)nc2)CC1` [Abemaciclib] were, in that order, inactive: 1.06 and inactive: 0.907.
Regarding `O=C(O)c1cc(I)ccc1NC(=O)[C@H](Cc1ccccc1)NCc1ccccc1`, the nucleolar normality score (1 µM) is inactive: 1.03 and the nucleolar normality score (10 µM) is inactive: 1.02.
With `O=C[C@H](O)[C@H](O)[C@H](O)CO` [D-Ribose], the nucleolar normality score (1 µM) is inactive: 0.927 and the nucleolar normality score (10 µM) is inactive: 1.03.
For `O=C(O)C1(C(=O)O)CCC1.[NH2-].[NH2-].[Pt+2]` [Carboplatin], the nucleolar normality score is, setting by setting: (1 µM) inactive: 1.05; (10 µM) inactive: 1.07.
As for `O=C(c1cncc(Br)c1)N1CCC(N2CCCC2)CC1`, the nucleolar normality score is inactive: 1.02 (1 µM) and inactive: 1.09 (10 µM).
The matching figures for `CCCCCOC(=O)Nc1nc(=O)n([C@@H]2O[C@H](C)[C@@H](O)[C@H]2O)cc1F` [Capecitabine]: inactive: 1.05 and inactive: 1.05.
The matching figures for `CC(C)=CCC/C(C)=C/CC/C(C)=C/CSc1ccccc1C(=O)O` [Salirasib]: inactive: 1.03 and inactive: 0.986.
As to `COc1ccc2cc(-c3nc(-c4ccc([S+](C)[O-])cc4)[nH]c3-c3ccncc3)ccc2c1` (stereo not drawn) [Tie2 kinase inhibitor], the nucleolar normality score is inactive: 1 (1 µM) and inactive: 0.984 (10 µM).
For `COc1cc2ncnc(Oc3ccc(CC(=O)Nc4cnn(C(C)C)c4)cc3)c2cc1OC`, the nucleolar normality score reads like this: (1 µM) inactive: 1.06; (10 µM) inactive: 0.951.
Take `COc1ncc(-c2ccc3nccc(-c4ccnnc4)c3c2)cc1NS(=O)(=O)c1ccc(F)cc1F`: the nucleolar normality score was active: 0.636 (1 µM) and active: 0.489 (10 µM).
The matching figures for `c1cc(-c2cnn3cc(-c4ccc(OCCN5CCCCC5)cc4)cnc23)ccn1` [Dorsomorphin (Compound C) 2HCl]: inactive: 1.06 and inactive: 1.13.
The like results for `CC1COCCN1c1cc(C2(S(C)(=O)=O)CC2)nc(-c2cccc3[nH]ccc23)n1` (stereo not drawn) were, in that order, inactive: 0.977 and inactive: 0.888.
In the case of `O=C1[C@H](CC[C@H](O)c2ccc(F)cc2)[C@@H](c2ccc(O)cc2)N1c1ccc(F)cc1` [Ezetimibe], the nucleolar normality score reads like this: (1 µM) inactive: 1.03; (10 µM) inactive: 1.02.
Turning to `CC1(C)CNc2cc(NC(=O)c3cccnc3NCc3ccncc3)ccc21` [Motesanib Diphosphate (AMG-706)], the nucleolar normality score reads like this: (1 µM) inactive: 1.03; (10 µM) inactive: 1.07.
For the molecule `Oc1cc(O)c(Cl)cn1` [Gimeracil], the nucleolar normality score (1 µM) was inactive: 1.05 and the nucleolar normality score (10 µM) is inactive: 1.11.
Turning to `COc1ccc(N2C(=O)/C(=C\c3ccc([N+](=O)[O-])s3)SC2=S)cc1`, the nucleolar normality score is active: 0.818 (1 µM) and active: 0.592 (10 µM).
